The results in this text go back to the antibiotic and cytotoxicity screens of Wong et al. (2023).

This is one part of the list.

This assay has as its system HepG2. Kind of assay: cytotoxicity call (relative viability < 0.9). The note with it: 10 µM.
As to `COc1cccc(S(=O)(=O)N(C)C[C@@H]2Oc3cc(C#CCN(C)C)ccc3S(=O)(=O)N([C@H](C)CO)C[C@H]2C)c1`, the cytotoxicity call was “inactive”. Then `C[C@@H]1CN([C@@H](C)CO)C(=O)c2cccc(NC(=O)CCCCCC(=O)Nc3ccccc3N)c2O[C@@H]1CN(C)Cc1ccc(-c2ccccc2)cc1`, with “inactive”; and `C[C@H](CO)N1C[C@H](C)[C@@H](CN(C)Cc2ccc(Cl)c(Cl)c2)Oc2ccc(NC(=O)Nc3cccc4ccccc34)cc2C1=O`, with “inactive”; and `CC(C)NC(=O)Nc1ccc2c(c1)C(=O)N([C@H](C)CO)C[C@H](C)[C@H](CN(C)S(=O)(=O)c1cn(C)cn1)OCCCC[C@H](C)O2`, with “inactive”. As to `O=C(C[C@H]1CC[C@@H]2[C@H](COC[C@@H](O)CN2S(=O)(=O)c2cccc(F)c2)O1)NCc1ccc2c(c1)OCO2`, the cytotoxicity call is “inactive”. The entry for `NNC(=O)c1ccc(/C=N\O)nc1` is “inactive”. Then `COc1ccc2c3c(n(c2c1)C)[C@@H](CO)N(C[C@]13CCN(CC1)C(=O)c1ccccn1)C(=O)c1ccccn1`, with “inactive”; and `CCC(CO)NCCNC(CC)CO.Cl.Cl` (centres undefined), with “inactive”.

Regarding `COCC(=O)N(C)C[C@H]1Oc2cc(C#CCC3CCCC3)ccc2S(=O)(=O)N([C@@H](C)CO)C[C@H]1C`, the cytotoxicity call was “inactive”. The entry for `CCO[C@@H]1OC(C(=O)N2CCN(Cc3ccccc3)CC2)=C[C@H](c2ccc(Br)cc2)[C@H]1CCCOC(=O)NCCCCCC(=O)NO` is “inactive”; for `CS(=O)(=O)N1[C@H](C(=O)O)[C@@H](CO)[C@@H]2Cn3c(ccc(-c4ccc(F)cc4)c3=O)[C@@H]21` it is “inactive”; for `COc1ccc(S(=O)(=O)Nc2ccc3c(c2)CC(=O)N([C@H](C)CO)C[C@H](C)[C@@H](CN(C)Cc2ccc(Cl)c(Cl)c2)O3)cc1` it is “inactive”.

With `C[C@@H]1CCCCO[C@H](CN(C)S(=O)(=O)c2ccc(F)cc2)[C@@H](C)CN([C@H](C)CO)C(=O)c2cc(NC(=O)Nc3cccc4ccccc34)ccc2O1`, the cytotoxicity call is “inactive”. The entry for `Cc1noc(C)c1NC(=O)Nc1cccc2c1O[C@@H](CN(C)C(=O)Nc1ccc(C(F)(F)F)cc1)[C@@H](C)CN([C@@H](C)CO)C2=O` is “inactive”.

As to `COCCOC(=O)N1C(=O)[C@@]2(c3cc(C#CC4(O)CCCCCC4)ccc31)[C@H](c1ccc(OCCO)cc1)N1[C@H](c3ccccc3)[C@H](c3ccccc3)OC(=O)[C@H]1[C@@H]2C(=O)N1CCN(c2ncccn2)CC1`, the cytotoxicity call was “inactive”. Then `COc1ccc(NC(=O)Nc2ccc3c(c2)C(=O)N([C@H](C)CO)C[C@@H](C)[C@@H](CN(C)S(=O)(=O)c2c(C)noc2C)OCCCC[C@H](C)O3)cc1`, with “inactive”; and `CO[C@H]1CN(C)C(=O)c2cc(NS(C)(=O)=O)ccc2OC[C@@H](C)N(C(=O)C2CCOCC2)C[C@@H]1C`, with “inactive”; and `C[C@H]1CN([C@@H](C)CO)C(=O)c2cc(NC(=O)Nc3ccc4c(c3)OCO4)ccc2O[C@H]1CN(C)Cc1ccc(C(F)(F)F)cc1`, with “inactive”. Take `C[C@@H]1CN([C@@H](C)CO)C(=O)c2cc(C3=CCCC3)cnc2O[C@H]1CN(C)C(=O)c1ccc2c(c1)OCO2`: the cytotoxicity call is “inactive”. Then `CCC(CC)[C@H](NC(C)=O)[C@@H]1[C@H](O)[C@@H](C(=O)O)C[C@H]1NC(=N)N`, with “inactive”. With `C[C@H]1CCCCO[C@H](CN(C)S(=O)(=O)c2ccccc2)[C@@H](C)CN([C@@H](C)CO)C(=O)c2cc(NC(=O)NC3CCCCC3)ccc2O1`, the cytotoxicity call was “inactive”. Consider `COC(=O)[C@@H]1[C@@H](CO)[C@@H]2Cn3c(ccc(-c4cncnc4)c3=O)[C@@H]2N1C(=O)C1CCC1`, for which the cytotoxicity call was “inactive”. Consider `C[C@@H]1CN([C@H](C)CO)C(=O)c2cc(NC(=O)NC3CCCCC3)ccc2O[C@@H]1CN(C)C(=O)Nc1ccc(C(F)(F)F)cc1`, for which the cytotoxicity call is “inactive”. Take `Nc1ccn(C2CSC(CO)O2)c(=O)n1` (centres undefined): the cytotoxicity call is “inactive”. The entry for `CO[C@H]1CN(C)C(=O)c2ccc(NS(=O)(=O)c3cn(C)cn3)cc2OC[C@H](C)N(Cc2cccc(F)c2)C[C@@H]1C` is “inactive”; for `CC(=O)N(C)C[C@H]1Oc2ncc(C#C[C@H](C)O)cc2C(=O)N([C@H](C)CO)C[C@H]1C` it is “inactive”.

As to `C[C@@H]1CN([C@@H](C)CO)C(=O)c2c(c3ccccc3n2C)-c2ccccc2CO[C@H]1CN(C)S(=O)(=O)c1cn(C)cn1`, the cytotoxicity call is “inactive”. The entry for `CC(C)(CO)C(O)C(=O)NCCCO` (centres undefined) is “inactive”; for `Cc1noc(C)c1S(=O)(=O)N(C)C[C@@H]1OCCCC[C@@H](C)Oc2ccc(NC(=O)Nc3ccc(F)cc3)cc2C(=O)N([C@@H](C)CO)C[C@H]1C` it is “inactive”.
